The structures appear in SMILES notation. In all, about 43,000 compounds went through this assay and about 200 (0.47%) were called active. Inconclusive results (about 12%) are left out. Calls follow the shape of the dose curve; as a rule, active = well fitted cell-killing curve with a large enough effect; inconclusive = small, poorly fitted or top-dose-only effect, or effect the other way; inactive = flat fitted curve, though single readings scatter. Some of the results follow.
% is scaled to controls: 0 for no effect and ±100 for the full control effect.

This assay is described as follows: Cell viability qHTS assay in S16 Pmp22-F2sN cells. Also: nearly all actives have a fitted effect of over 65% in size. The settings on record: S16 Pmp22-F2sN Schwann cells (luciferase reporters placed in the Pmp22 gene) viability, CellTiter-Glo, 24 h; series mostly up to 57.5 µM; activity change, negative = cytotoxicity: at the top concentration. A digest of the protocol: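 Luminescence from CellTiter-Glo, read by CCD camera after a 15 min room-temperature incubation, served as the viability signal. Reporter Schwann cells (S16 Pmp22-F2sN) had been treated with pin-transferred compounds for 24 h at 37C.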
For `Cc1cccc(NC(=O)c2ccc(Cn3nc(N4CCN(c5ccccc5)CC4)ccc3=O)o2)c1C`, the “activity change, negative = cytotoxicity” value was inactive: -23.1%. As for `Cn1nc(C(=O)NCc2ccccc2Cl)c2c1-c1ccccc1SC2`, the “activity change, negative = cytotoxicity” value was inactive: 28.8%. The value for `CCN(CC)c1nn2c(=O)c(C(=O)NCc3ccccc3Br)cnc2s1` was inactive: 3%; that for `COc1ccc(CCNC(=O)c2ccc3c(c2)CCN3S(=O)(=O)c2ccc(C)cc2)cc1OC` was inactive: -4.65%.

Turning to `CCC1CCCCN1C(=O)Cn1c(=O)n(-c2ccc(Cl)c(Cl)c2)c(=O)c2c(C)c(C(=O)N(C)C)sc21` (stereo unspecified), the “activity change, negative = cytotoxicity” value was inactive: 0.533%. The value for `CC(C)OCCCn1c(SCc2ccccc2Cl)nc2c(sc3ccccc32)c1=O` was inactive: -0.442%; that for `CCOc1ccc(NC(=O)CSc2cn(CC(=O)N3CCOCC3)c3ccccc23)cc1` was inactive: 12.2%.

In the case of `CCC1CN(C(=O)N2CCC(C(=O)NCCC3=CCCCC3)CC2)c2ccccc2O1` (stereo unspecified), the “activity change, negative = cytotoxicity” value is inactive: -0.669%. The same measure for `CCC(Cc1ccccc1)NC(=O)c1cccc(Nc2nc3ccccc3nc2-n2nc(C)cc2C)c1` (stereo unspecified): inactive: -0.0968%; for `CC(=O)Nc1c(C)nn(-c2ccccc2)c1N1CCC(C(=O)NCc2cccc(F)c2)CC1`: inactive: -1.44%; for `CCN(c1cc(C)cc(C)c1)S(=O)(=O)c1nnc(NC(=O)c2ccccc2C)s1`: inactive: -0.612%. The value for `COc1ccc(CCNC(=O)c2cc(=O)[nH]c3ccc(S(=O)(=O)N4CCCCC4)cc23)cc1OC` was inactive: 11.1%; that for `CN(C)c1ccc(C(=O)NCc2ccc3c(c2)CCN3C(=O)c2ccc(Cl)cc2)cc1` was inactive: 1.29%; that for `COc1ccc(Cl)cc1NC(=O)CCn1nc(C)cc1C` was inactive: -3.24%. The value for `Clc1ccc(CNc2ncnc3onc(-c4ccc(Cl)cc4)c23)cc1` was inactive: -17.4%. Take `CCc1cccc(C)c1NC(=O)c1cc(S(=O)(=O)N2CCN(c3ccccc3)CC2)ccc1F`: the “activity change, negative = cytotoxicity” value is inactive: 0.249%. The value for `COc1ccc(OC)c(CNc2ncnc3onc(C)c23)c1` was inactive: -17%; that for `Cc1cccc(CCNC(=O)CCc2c(C)nc3c(c(C)nn3-c3ccccc3)c2C)c1` was inactive: 10.6%. The same measure for `COc1ccc2c(c1)CC(C(=O)Nc1cc(OC)c(OC)c(OC)c1)CO2` (stereo unspecified): inactive: -3.44%; for `COc1cc(OC)cc(C(=O)Nc2cccc(-c3cn4ccsc4n3)c2)c1`: inactive: -6.76%. For the compound `COc1ccc(C(=O)NCc2ccc3c(c2)CCN3C(=O)c2ccc(Cl)cc2)c(OC)c1`, the “activity change, negative = cytotoxicity” value is inactive: -6.82%. The value for `COc1ccccc1NC(=O)C1=C(C)Nc2nc(-c3ccco3)nn2C1c1ccccc1` (stereo unspecified) was inactive: -0.0491%; that for `COc1cccc(CNC(=O)c2ccc3c(c2)N(C)C(=O)C2CCCCN32)c1` (stereo unspecified) was inactive: -8.76%; that for `COc1ccc(-c2nc(SCC(=O)Nc3ccc4c(c3)OCO4)c(-c3ccccc3)[nH]2)cc1` was inactive: -17.8%. Take `CCc1ccc(NC(=O)C2CCC(CNS(=O)(=O)c3cccs3)CC2)cc1` (stereo unspecified): the “activity change, negative = cytotoxicity” value was inactive: 8.74%. The same measure for `CCOc1ccc(-c2cc3nc(C4CCN(C(=O)OC(C)(C)C)CC4)c(C(=O)Nc4ccc(C)c(F)c4)cn3n2)cc1`: inactive: 7.95%.

These data come from PubChem BioAssay AID1508642 (National Center for Advancing Translational Sciences (NCATS), 2021).
